What is called pIC50 is the negative decadic logarithm of the IC50, by convention in mol/L.

pIC50: −log10 of the molar value.

UniProt O14744, sequence (O14744 whole entry): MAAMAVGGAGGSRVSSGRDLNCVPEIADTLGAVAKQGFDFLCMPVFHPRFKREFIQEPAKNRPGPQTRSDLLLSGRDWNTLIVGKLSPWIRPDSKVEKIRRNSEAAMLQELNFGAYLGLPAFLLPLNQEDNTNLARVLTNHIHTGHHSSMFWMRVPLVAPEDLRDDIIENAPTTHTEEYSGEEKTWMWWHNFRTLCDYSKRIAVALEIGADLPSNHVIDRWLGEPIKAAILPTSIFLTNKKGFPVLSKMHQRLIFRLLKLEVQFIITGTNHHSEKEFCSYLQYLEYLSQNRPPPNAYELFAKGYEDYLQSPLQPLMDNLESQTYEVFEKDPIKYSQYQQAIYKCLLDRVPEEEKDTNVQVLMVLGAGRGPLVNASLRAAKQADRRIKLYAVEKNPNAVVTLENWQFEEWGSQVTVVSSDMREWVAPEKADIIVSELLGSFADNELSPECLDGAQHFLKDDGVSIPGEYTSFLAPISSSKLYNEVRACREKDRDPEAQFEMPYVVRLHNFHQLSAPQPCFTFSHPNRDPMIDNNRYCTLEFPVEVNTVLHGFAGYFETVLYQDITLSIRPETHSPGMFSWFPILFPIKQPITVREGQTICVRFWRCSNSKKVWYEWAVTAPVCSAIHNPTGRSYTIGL
UniProt O14744, sequence (Q9BQA1 whole entry partner): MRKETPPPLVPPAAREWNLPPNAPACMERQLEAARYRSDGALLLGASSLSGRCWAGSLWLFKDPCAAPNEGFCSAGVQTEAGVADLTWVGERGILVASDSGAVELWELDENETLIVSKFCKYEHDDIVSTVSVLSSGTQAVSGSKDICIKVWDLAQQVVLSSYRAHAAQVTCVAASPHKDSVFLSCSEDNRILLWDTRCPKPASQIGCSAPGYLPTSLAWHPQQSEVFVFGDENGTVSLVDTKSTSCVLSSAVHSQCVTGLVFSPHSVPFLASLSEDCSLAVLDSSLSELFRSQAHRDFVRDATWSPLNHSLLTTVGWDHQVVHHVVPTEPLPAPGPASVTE

For the experiment, the target named is PRMT5/MEP50 Complex (Homo sapiens (Human), UniProt O14744). As to the kind of experiment: PRMT5 inhibition based on TR-FRET assay. It counts as biochemical. The following applies: 32 nM PRMT5:MEP50, 50 nM Histone-H4 peptide, 1 μM SAM. The text has this: PRMT5 Inhibition Based on TR-FRET Assay:
Protein arginine methyltransferase 5 (PRMT5) is a type II arginine methyltransferase that catalyze mono- and symmetric demethylation on arginine residues of histone or non-histone proteins in presence of S-adenosylmethionine (AdoMet or SAM) a cofactor responsible for donating the methyl group. PRMT5 is reported to be overexpressed in several human cancers. To identify compounds that inhibit the PRMT5 and decrease its activity, a TR-FRET based assay has been established. Time-resolved fluorescence resonance energy transfer (TR-FRET) HTS assays are homogeneous proximity assays where the interaction of two dye-labeled binding partners is detected by the energy transfer between a donor and an acceptor dye and the subsequent light emission by the acceptor dye. PRMT5 catalyzes Histone H4 peptide which is biotin tagged to the Lysine amino acid at carboxyl end, in presence of S-adenosyl-1-methionine (SAM) to methylate the peptide. The antibody specific to mono methylated H4 peptide (H4R3) with Ig conjugate binds to the methylated peptide, indirectly binding to the Europium lanthanide. SureLight Allophycocyanin-Streptavidin binds to the biotin tag of the peptide, therefore accepting the energy transferred from the Europium lanthanide. This energy transfer between Europium to SureLight Allophycocyanin is a direct measure of the activity/inhibition of the PRMT5 enzyme.
Assay buffer: 20 mM BICINE (pH 7.6), 25 mM NaCl, 2 mM DTT, 0.01% Tween-20 and 0.01% BSA.
The compound dilutions were prepared as 7.5% DMSO stock solutions in assay buffer. To 2 μL (7.5×) of test compound, 5 μL of PRMT5 enzyme prepared in assay buffer (Final concentration of 32 nM in 15 μL reaction volume) was added and allowed for 30 minutes pre-incubation time in a white polystyrene 384-well plate at room temperature. […] The plates were then read on Victor-3 with Excitation at 340 nm and Emissions collected at 615 and 665 nm in TR-FRET protocol. […]
On the technique in general: Time-resolved FRET reads energy transfer from a long-lived donor to a nearby acceptor.
As for `CC1(C)C(=O)N(Cc2ccc(C(F)(F)F)cn2)C(=O)N1CC(O)CN1CCc2ccccc2C1` (stereo not drawn) [Example 77, 1-(3-(3,4-Dihydroisoquinolin-2(1H)-yl)-2-hydroxypropyl)-5,5-dimethyl-3-((5-(trifluoromethyl)pyridin-2-yl)methyl)imidazolidine-2,4-dione], the pIC50 was 6.08.
Compound `Cn1cc(CN2C(=O)N(CC(O)CN3CCc4ccccc4C3)C(C)(C)C2=O)ccc1=O` (stereo not drawn) [Example 78, 1-(3-(3,4-Dihydroisoquinolin-2(1H)-yl)-2-hydroxypropyl)-5,5-dimethyl-3-((1-methyl-6-oxo-1,6-dihydropyridin-3-yl)methyl)imidazolidine-2,4-dione] showed a pIC50 of 6.01.
Compound `Cc1ccc(CN2CC(c3ccccc3)N(CC(O)CN3CCc4ccccc4C3)C2=O)cc1` (stereo not drawn) [Example 81, 3-(3-(3,4-dihydroisoquinolin-2(1H)-yl)-2-hydroxypropyl)-1-(4-methylbenzyl)-4-phenylimidazolidin-2-one] showed a negative logarithm of the IC50 (pIC50) of 6.21. Compared with the last compound, the pIC50 is 0.20 log units higher.

Values taken from US11365205B2 (Aurigene Discovery Technologies Limited, priority 2018, dated 2022).
